From PMC6919601, “Identification of Plasmodium dipeptidyl aminopeptidase allosteric inhibitors by high throughput screening” (PLoS ONE, 2019) come the findings set out here.

Structures are written as SMILES. The campaign covered roughly 110,000 compounds. About 230 (0.21%) showed an effect of 50% or more. Some of the results follow.
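Also: 30 min substrate incubation versus DMSO and 10 µM JCP410 controls.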

The target in this assay is DPAP1 (Plasmodium falciparum, UniProt Q8IIJ9). The assay can be described thus: primary screen, percent inhibition; read by cleavage of a fluorogenic dipeptide substrate; higher = more effect of the substance. Set-up: species or system P. falciparum D10 trophozoite lysates; single well.
Chain of DPAP1 (Q8IIJ9 whole entry, looked up): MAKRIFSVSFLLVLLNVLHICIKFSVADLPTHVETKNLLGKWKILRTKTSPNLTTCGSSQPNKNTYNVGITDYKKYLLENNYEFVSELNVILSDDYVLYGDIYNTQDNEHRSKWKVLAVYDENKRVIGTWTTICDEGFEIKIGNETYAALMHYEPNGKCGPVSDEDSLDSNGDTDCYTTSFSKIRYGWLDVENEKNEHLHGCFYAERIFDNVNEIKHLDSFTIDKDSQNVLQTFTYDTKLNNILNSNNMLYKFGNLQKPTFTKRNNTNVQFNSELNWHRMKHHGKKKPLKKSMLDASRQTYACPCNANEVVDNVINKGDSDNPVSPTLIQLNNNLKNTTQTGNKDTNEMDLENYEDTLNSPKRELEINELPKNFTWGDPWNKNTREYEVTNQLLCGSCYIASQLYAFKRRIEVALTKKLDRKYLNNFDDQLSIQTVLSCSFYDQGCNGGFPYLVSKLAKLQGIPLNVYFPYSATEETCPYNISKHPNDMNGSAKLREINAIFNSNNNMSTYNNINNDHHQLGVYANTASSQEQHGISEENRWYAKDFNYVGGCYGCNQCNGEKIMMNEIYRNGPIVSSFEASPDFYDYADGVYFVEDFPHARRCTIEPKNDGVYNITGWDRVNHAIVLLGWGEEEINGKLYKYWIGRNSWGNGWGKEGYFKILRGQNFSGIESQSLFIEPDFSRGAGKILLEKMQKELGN
Regarding `N#Cc1c(NC(=O)c2c(F)cccc2F)sc2c1CCCC2`, the “% Inhibition @ 10 uM” value was 1.01%.
With `Cc1cc(Cl)ccc1N(C)C(=O)c1cnn(-c2ccccc2)c1C`, the “% Inhibition @ 10 uM” value came out at 1.59%.
Take `Cc1ccc(CCNC(=O)CCCNS(=O)(=O)c2cccc3nsnc23)cc1`: the “% Inhibition @ 10 uM” value is -1.43%.
Next, `COc1ccc(/C=C2\SC(=O)N(CC(=O)Nc3ccccc3F)C2=O)cc1`: -1.28%; `O=C(NCCOc1ccccc1Cl)C(=O)NCCOc1ccccc1Cl`: 3.39%; `CC(=O)Nc1sc2c(c1C#N)CCC2`: 6.47%.
For `Cc1cc(C)nc(Nc2n[nH]c(C)n2)n1` the value was -4.78%.
Next, `CCN(CC)CCCNC(=O)CNC(=O)Cn1cnc2sc(C)c(C)c2c1=O`: 2.8%; `CCOC(=O)c1sc2nc(C)cc(C)c2c1N(C(C)=O)C(C)=O`: -3.06%.
On to `C=CCc1cc(/C=C2/NC(=O)N(Cc3ccc(F)cc3)C2=O)cc(OCC)c1O`, for which the “% Inhibition @ 10 uM” value is recorded as -0.386%.
For `CCOc1ccc(N2C(=O)NC(=O)/C(=C/c3ccc(C)cc3)C2=O)cc1` the value was 0.299%; for `CSc1nc2sc3c(c2c2nnnn12)CCN(C)C3`, -0.267%.
Next, `CCN(CC)CCCNC(=O)C1CCN(c2nn3cc(-c4ccc(C)cc4)nc3s2)CC1`: 4.19%; `COc1ccccc1C(=O)Nc1ccc(-c2nc3cc(Cl)ccc3o2)cc1`: 0.467%; `CC1=C(C(=O)Nc2ccccc2C)C(c2ccc(Br)cc2)NC(=O)N1` (stereo not drawn): -2.84%.
For `CS(=O)(=O)N1CCN(CCN2C(=O)c3cccc4cccc(c34)C2=O)CC1` the value was 6.48%.
Turning to `Cc1ccc2cc3c(NCc4ccc(F)cc4Cl)[nH]nc3nc2c1`, the “% Inhibition @ 10 uM” value is 4.33%.
`NC(=O)c1conc1-c1ccc(Cl)cc1Cl`: the “% Inhibition @ 10 uM” value was -0.711%.
Next, `COc1ccc(/C=c2\s/c(=C/C(=O)c3ccc(C)cc3)[nH]c2=O)c(OC)c1`: 0.189%.
As to `O[C@H]1CC[C@H](NC2CCCCCC2)CC1`, the “% Inhibition @ 10 uM” value is -0.233%.
As to `CC(CCCC(C)(C)O)NC(C)Cc1ccc(F)cc1` (stereo not drawn), the “% Inhibition @ 10 uM” value is listed as 4.68%.
Next, `CC(C)C[C@H](NC(=O)c1ccc(-c2ccc(NS(C)(=O)=O)cc2)cc1)C(=O)NCC#N`: -0.207%; `O=C(C(Cc1ccccc1)n1cccc1)N1CCN(c2ccccn2)CC1` (stereo not drawn): 0.981%.
As for `CCO/C(O)=C1\C(C)=NC2=C(C(=O)CC(C)(C)C2)C1c1cc(Br)c(C)s1` (stereo not drawn), the “% Inhibition @ 10 uM” value is given as -8.7%.
Next, `Cc1nc2c(-c3ccc(Cl)cc3)cnn2c(O)c1Cc1ccccc1`: 3.16%.
For `CCCCSc1nnc2n(/N=C/c3ccc(O)c(OC)c3)cnn12` the value was 1.76%; for `NC(=O)C1CCN(C2C3CC4CC(C3)CC2C4)CC1` (stereo not drawn), 0.472%.
Consider `N#CC1=C(N)Oc2cc(O)ccc2C1c1ccc(F)cc1` (stereo not drawn), for which the “% Inhibition @ 10 uM” value is -2.51%.
For `Cc1sc2ncn(CC(=O)NCCCC(=O)NCc3ccc(F)cc3)c(=O)c2c1C` the value was 5.88%; for `CC(NC(=S)c1cccnc1)c1ccccc1` (stereo not drawn), -1.93%.
`COc1ccc(NC(=O)c2ccc(Cl)c(Cl)c2)c(OC)c1`: the “% Inhibition @ 10 uM” value is reported as -6.74%.
Next, `COc1ccc(CCNS(=O)(=O)c2cccs2)cc1`: -4.79%; `Cc1ccccc1Cn1c(NCC2CCCO2)nc2c1c(=O)n(C)c(=O)n2C` (stereo not drawn): 18.4%.
Next, `CCc1ccccc1NC(=O)/C=C/c1ccc(C(C)C)cc1`: 1.48%.
In the case of `CCC(C)N(CCNc1ncnc2onc(C)c12)Cc1ccco1` (stereo not drawn), the “% Inhibition @ 10 uM” value is 10.3%.
Regarding `COc1ccc(-c2cc(=O)oc3c(C)c4c(cc23)CN(Cc2ccco2)CO4)cc1`, the “% Inhibition @ 10 uM” value is given as -0.808%.
With `COc1cc(C2(c3ccc(N)c(OC)c3)CCCCC2)ccc1N`, the “% Inhibition @ 10 uM” value is on record as -2.02%.
In the case of `Cc1coc2cc3oc(=O)c(CCC(=O)NCc4ccccc4)c(C)c3cc12`, the “% Inhibition @ 10 uM” value amounted to 4.13%.
For `Cc1sc(NC(=O)C2C3CCC(C3)C2C(=O)O)c(C(N)=O)c1-c1ccc(C(C)(C)C)cc1` (stereo not drawn) the value was 18.4%.
Next, `CCN(CC)C(=O)Cn1cc(S(=O)(=O)Cc2cc(C)ccc2C)c2ccccc21`: 0.292%; `CN1C(=O)C(O)(CC(=O)c2ccco2)c2cc(Br)ccc21` (stereo not drawn): 0.583%; `Cc1cccc(Oc2ccc(NC(=O)c3ccccc3C(=O)O)cc2)c1`: -8.92%.
On to `Cc1cccc(NC(=O)C2CCN(S(=O)(=O)c3cccc4nsnc34)CC2)n1`, for which the “% Inhibition @ 10 uM” value is -5.22%.
For the compound `COc1ccc(NC(=O)CN(c2cc(Cl)cc(Cl)c2)S(C)(=O)=O)cc1OC`, the “% Inhibition @ 10 uM” value came out at 7.34%.
Turning to `COc1cc(CNCc2c(C(=O)O)n(Cc3ccc(Cl)cc3)c3ccccc23)cc(OC)c1OC`, the “% Inhibition @ 10 uM” value came to 3.61%.
For `NC(=O)C1CCN(c2c3c(nc4nncn24)CCC3)CC1` the value was 0.895%; for `Cc1nc2nc(NC(=O)C(C)C)nn2c(C)c1Cl`, -1.53%; for `CC(=O)N1c2ccccc2N=C2CC(C)(C)CC(O)=C2C1c1cccc(Cl)c1` (stereo not drawn), -5.79%.
Next, `Cc1[nH]nc2c1C(c1c(OCc3ccccc3)ccc3ccccc13)C(C#N)=C(N)O2` (stereo not drawn): -0.413%.
Consider `N#Cc1c(-c2ccccc2)cc(-c2ccccc2)nc1N1CCCCC1`, for which the “% Inhibition @ 10 uM” value is given as -5.65%.
For `COc1ccc(-c2cc(-c3ccccc3)nc(SC(C(N)=O)c3ccccc3)c2C#N)cc1` (stereo not drawn) the value was 3.01%.
For `CC(C)NC(=O)C(=O)NCc1ccncc1` the value was -0.0829%.
As for `O=C(Nc1ccc(Cl)cc1)Nc1cc([N+](=O)[O-])ccc1F`, the “% Inhibition @ 10 uM” value amounted to 0.0792%.
For `Cc1ccc(-c2c(C(=O)O)n(C)c(=O)c3ccccc23)cc1C`, the “% Inhibition @ 10 uM” value is -7.91%.
Consider `Clc1ccc(-c2nn3c(Cn4cnc5ccccc54)nnc3s2)cc1`, for which the “% Inhibition @ 10 uM” value is reported as 48%.
In the case of `O=C1N=C(N2CCCCCC2)S/C1=C/c1ccc(Cl)cc1`, the “% Inhibition @ 10 uM” value was -1.65%.
For `Cc1ccc(Cn2c(=O)c(C#N)cc3c(=O)n4cccc(C)c4nc32)cc1` the value was -5.92%; for `COc1cc(C)c(CN2CCC(Cc3ccccc3)CC2)cc1C`, -5.57%.
`c1cc(CCSC2CCCCC2)ccn1`: the “% Inhibition @ 10 uM” value is on record as 0.00178%.
Next, `COc1cccc(/C=C2N=C(/C=C/c3ccc(C)cc3)OC\2=O)c1`: 8.65%.
For `Cc1cc2oc3c(c(=O)c2cc1C)C(c1ccc(C(C)C)cc1)N(CCCN1CCOCC1)C3=O` (stereo not drawn) the value was -4.78%; for `O=C(NCc1cccnc1)c1ccccc1O`, 5.38%.
On to `COc1ccccc1C1(c2c(OC)c(=O)c2=O)SCCCS1`, for which the “% Inhibition @ 10 uM” value stood at 0.746%.
